Assay results: the supplement of paper PMC10126150
Sequences with one replicate were seen in a single cluster, so their values are uncertain.

The sequences below were run on ATP (assay: switch fluorescence ratio, 500 uM ATP over buffer (Cy3 cluster intensity, sum of 5 cycles each) (fold (ratio)); higher = stronger signal-on switching upon ATP binding; sequences stand for … in TCGTCGGCAGCGTCAGATGTGTATAAGAGACAGTTTTTTTTTTTTTTTTTTTTTTTTT…TC). Conditions: aptamer strand: ATP DNA aptamer (quencher-CACCTGGGGGAGTATTGCGGAGGAAGG + anchor), 100 nM annealed; ATP concentration: 500 uM; one replicate.
Method in brief: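 Values give the fluorescence ratio for each switch-domain sequence, averaged from per-cluster ratios of summed target-cycle to summed buffer-cycle Cy3 intensity. The Cy3-labelled switching-strand clusters sat on a modified Illumina MiSeq flow-cell, were annealed to 100 nM quencher-labelled ATP aptamer, and were imaged in selection buffer, then after 15 min with 500 uM ATP at 22 °C. Five cycles ran with NaOH stripping and re-annealing between them, and clusters outside 100-1000 RFU were excluded.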
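Note: ATP exposure 15 min at 22 °C before imaging.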

Row | Sequence | switch fluorescence ratio
1 | GAGGGAAGC | 0.984
2 | GAGGGAGAGC | 0.979
3 | GAGGGAGCTA | 1.05
4 | GAGGGCATGG | 1.03
5 | GAGGGCCGAT | 1.01
6 | GAGGGCGTCG | 1.03
7 | GAGGGCTCGA | 1.03
8 | GAGGGGCAGA | 1.07
9 | GAGGGGCCAC | 0.991
10 | GAGGGGCGCT | 1
11 | GAGGGGGCA | 0.989
12 | GAGGGTACCG | 1.03
13 | GAGGGTGCTC | 1.03
14 | GAGGGTTTAA | 0.967
15 | GAGGTAATAG | 2.54
16 | GAGGTAGCAT | 1.06
17 | GAGGTCCTAA | 0.996
18 | GAGGTCGATT | 0.983
19 | GAGGTCGTGC | 0.981
20 | GAGGTGCCGG | 0.999
21 | GAGGTGCGGA | 0.947
22 | GAGGTGGCTG | 0.987
23 | GAGGTGTGC | 0.999
24 | GAGGTGTTAG | 0.991
25 | GAGGTTACAC | 1
26 | GAGGTTATTT | 1.16

Row | Sequence | switch fluorescence ratio
27 | GAGGTTGAGG | 1
28 | GAGGTTGCG | 0.975
29 | GAGGTTGCGA | 0.987
30 | GAGTAATGAT | 0.995
31 | GAGTACAGGA | 1.03
32 | GAGTACGAAA | 1.01
33 | GAGTACTAAT | 0.998
34 | GAGTACTGGG | 0.961
35 | GAGTAGCGCA | 1.02
36 | GAGTAGTACC | 1.08
37 | GAGTAGTGGC | 1.02
38 | GAGTATAGTT | 0.962
39 | GAGTCCCGG | 1.01
40 | GAGTCCTAGG | 0.962
41 | GAGTCCTCGT | 1.01
42 | GAGTCGGGTT | 0.968
43 | GAGTCGGTTG | 0.984
44 | GAGTCTACAG | 0.969
45 | GAGTCTCTAT | 1
46 | GAGTGATACC | 0.993
47 | GAGTGCCGCG | 1.02
48 | GAGTGCGTG | 0.966
49 | GAGTGGCAGG | 1.02
50 | GAGTGTAGAA | 1.01
51 | GAGTGTAGGA | 0.986
52 | GAGTTACTG | 1.13

Row | Sequence | switch fluorescence ratio
53 | GAGTTATAC | 0.975
54 | GAGTTATTGC | 0.969
55 | GAGTTCGTCT | 1.01
56 | GAGTTGAGAA | 0.993
57 | GAGTTTCTTC | 1.01
58 | GAGTTTTGAT | 1.03
59 | GATAAAGGGA | 1.04
60 | GATAACAGCC | 1.01
61 | GATAAGTAGG | 1.03
62 | GATAATACGC | 1.09
63 | GATAATCAAT | 0.953
64 | GATAATGACT | 1.01
65 | GATAATTAGT | 0.984
66 | GATACATTG | 0.987
67 | GATACATTGA | 1.04
68 | GATACCAAGA | 1
69 | GATACTGCTA | 1.03
70 | GATACTTGAT | 0.974
71 | GATACTTTGG | 0.998
72 | GATAGCCACG | 1.04
73 | GATAGCCCTC | 0.967
74 | GATAGGGAAA | 0.972
75 | GATAGTCAAA | 0.975
76 | GATAGTTC | 0.979
77 | GATATACATT | 1.03
78 | GATATAGCGT | 0.961

Row | Sequence | switch fluorescence ratio
79 | GATATCAAGC | 0.986
80 | GATATCATTA | 1.01
81 | GATATCGGCC | 1
82 | GATATCTAAT | 1.02
83 | GATATGAAGT | 0.984
84 | GATATGAATC | 0.973
85 | GATATGTGCG | 0.985
86 | GATATTAGAC | 0.993
87 | GATATTCCGA | 1
88 | GATCAAAGAT | 0.974
89 | GATCAAGATC | 1
90 | GATCAATTCT | 1.02
91 | GATCACGCAT | 1.5
92 | GATCAGTTTA | 1.03
93 | GATCATGTAT | 1.02
94 | GATCATTACA | 0.984
95 | GATCATTCGA | 0.977
96 | GATCCATCAT | 1
97 | GATCCCAAGT | 1.02
98 | GATCCCAAT | 1.27
99 | GATCCCACTT | 1.01
100 | GATCCCGGAG | 1.01
101 | GATCCGAATA | 1.2
102 | GATCCGCAGG | 1.11
103 | GATCCGGACA | 1.01
104 | GATCCGTGAC | 1.92

Row | Sequence | switch fluorescence ratio
105 | GATCGAACAC | 1.06
106 | GATCGACTAA | 1.01
107 | GATCGAGGCA | 1.05
108 | GATCGGGATG | 0.988
109 | GATCGGGATT | 0.961
110 | GATCGGGTA | 0.996
111 | GATCGGTTGC | 1.01
112 | GATCGGTTGG | 1.03
113 | GATCGTGTAG | 1.01
114 | GATCGTTTAA | 1
115 | GATCTAAGTT | 0.974
116 | GATCTCAAAT | 1.02
117 | GATCTCACTC | 1.06
118 | GATCTCTCTT | 1
119 | GATCTGCACT | 1.18
120 | GATCTGCAGG | 1.23
121 | GATCTTTTCA | 0.986
122 | GATGAACTAC | 1.15
123 | GATGACACTC | 1.02
124 | GATGACCAAT | 1.08
125 | GATGAGGGGC | 0.807
126 | GATGAGTTTG | 0.957
127 | GATGATAGGA | 1.02
128 | GATGATGTGG | 1
129 | GATGCACTTG | 1.01
130 | GATGCAGAGA | 0.971

Row | Sequence | switch fluorescence ratio
131 | GATGCCAGGT | 1.27
132 | GATGCGAAGC | 1.08
133 | GATGCGAATA | 1.13
134 | GATGCGAGTC | 1.03
135 | GATGCGATAG | 2.47
136 | GATGCGGAG | 1.01
137 | GATGCGTAG | 1.02
138 | GATGCTGTGA | 0.973
139 | GATGGACGGC | 0.997
140 | GATGGAGATC | 1.04
141 | GATGGAGGTC | 1.01
142 | GATGGATGCG | 1.06
143 | GATGGGAAGA | 1.01
144 | GATGGGAGAT | 1.04
145 | GATGGGATGT | 0.98
146 | GATGGGATTA | 1.09
147 | GATGGGCATG | 0.987
148 | GATGGGTAC | 1.66
149 | GATGGTTGAC | 0.99
150 | GATGGTTTGC | 0.991
151 | GATGTAGAGG | 0.945
152 | GATGTAGTAC | 1.32
153 | GATGTATGAC | 1.04
154 | GATGTATTTA | 1.02
155 | GATGTCGCAG | 0.967
156 | GATGTCTAAT | 0.996

Row | Sequence | switch fluorescence ratio
157 | GATGTCTGCC | 0.991
158 | GATGTGCCAC | 1.03
159 | GATGTTCTAA | 1.02
160 | GATGTTTAAC | 1.02
161 | GATGTTTCTT | 1
162 | GATTAAATCT | 1.01
163 | GATTAAGTGT | 0.973
164 | GATTACTCGT | 0.965
165 | GATTAGAAC | 0.99
166 | GATTAGAATT | 0.999
167 | GATTAGGTAA | 0.939
168 | GATTAGTGAG | 0.961
169 | GATTAGTGAT | 0.986
170 | GATTAGTTTC | 1.02
171 | GATTATAGG | 0.981
172 | GATTCAGAGC | 1.03
173 | GATTCAGTT | 1.03
174 | GATTCCTCTT | 2.23
175 | GATTCGGATT | 1.01
176 | GATTCTTAGT | 0.973
177 | GATTCTTCTG | 1.01
178 | GATTCTTGA | 1.02
179 | GATTGATTCT | 0.974
180 | GATTGCAAGT | 1.03
181 | GATTGGAGGT | 0.961
182 | GATTGGCGAA | 0.971

Row | Sequence | switch fluorescence ratio
183 | GATTGGTGAC | 1.04
184 | GATTGTCGAA | 0.971
185 | GATTGTGCTA | 1.02
186 | GATTGTTT | 0.972
187 | GATTTAGGAT | 1.03
188 | GATTTCATTC | 0.966
189 | GATTTCGTGA | 0.979
190 | GATTTGATAC | 1.07
191 | GATTTGGGTG | 1.01
192 | GATTTTATTC | 0.994
193 | GATTTTCACG | 0.953
194 | GATTTTTTAA | 0.99
195 | GCAAACGTTG | 1.02
196 | GCAAAGATTT | 0.984
197 | GCAAATGCAA | 0.979
198 | GCAAATTATG | 0.998
199 | GCAACGCAGC | 1.17
200 | GCAACTGAGA | 1.04
201 | GCAAGAAATA | 1.03
